Measurements taken from the RNAGym collection of RNA variant scans (doi:10.7554/elife.90254).
The source gives no read counts; variants with many changes may rest on few reads.

B1: LINE1-mini (parent)
chain: GGCAGAGCUCAACACAGCGUGGCAAAGUGGCUGUGGCUAGACUGCC

Variants of: B1
Assay: self-cleavage, relative activity (ratio to wild type); higher = more cleavage; in vitro, sequencing; the parent is a self-cleaving ribozyme

Variant | self-cleavage
C10U G19U U28A | 0.27
A11C G19C A26G | 0.04
A11G A14G G19C G22A C23G | 0.01
A11G A14C G36U A39G | 0
C10U G35A A39G U43A | 0.02
A11G C13A G21U U32A | 0.01
A11G A14G G27C C37G | 0.01
A11C A14C G19U C23G C46G | 0
A11C C23U A25U A26U A41U | 0.07
A11C C18U G36A | 0.02
A11C U20G U32G | 0.02
A11C A25U U34G C42A | 0.01
A11C G17A C45A | 0.02
A11C A14U G33U | 0.02
C10U U38C U43G | 0.01
A11G A14C C15A G27U A39U | 0
A11C U28A U38G | 0.01
A11C U20A G36A G44C | 0.02
A11G A26U G29U G35A | 0.02
A11C C13G A39G | 0.02
A11C C31G G33A A39G | 0
A11C G17C C18A G27U G36C C42G | 0
A11G A14C G17U A25G | 0.02
A11G A24C G33U | 0.01

Variant | self-cleavage
A11C A14U G21U G44C | 0.04
C10U G36C A39C C42A | 0.05
A11C C15G G29C | 0.03
C10U U34C G44U | 0.02
A11C C18U G40C | 0.03
A11C C18U G40U | 0.03
A11C U32A G40C | 0.02
A11C G21C C31A G33A G40C C45A | 0.01
A11C C18G A25C | 0.01
A11C A14G A25U | 0.01
A11G A14G C45A | 0.05
A11C G19U G22C U32C C37G A39U | 0
A11G A12G C15U U32A | 0
C10U G21U G40A G44U | 0.02
C10U G19A U34A A41C C45G | 0.01
A11C A12C A25U C45A | 0.02
A11G A25U C31A U32C C37A | 0
C10U U28C A39C C42G G44U | 0.01
A11C G22U U38C | 0.09
A11C A16U G22U U38G | 0
A11C G33A U43G C45G | 0.01
A11G A24G C37A | 0.01
A11C U38G A39U | 0.01
A11C A12U C13U G22C U38A C42G | 0

Variant | self-cleavage
A11G C15A G29C G44A | 0
A11G A16G U20G C31A | 0.01
C10U G22C G44U | 0.11
A11C A14U C15G U38G | 0.03
C10U G22A G30A G35A | 0.06
A11C U20C G21U A25G G33U | 0.03
A11G A12G G21C A24C U32G | 0.01
A11C C13A G35U | 0.03
A11C U20A U34G C46G | 0
A11C A14C A41G | 0.02
A11C A14G G36U | 0.02
A11C U32G G35A | 0.02
A11G C15A A25C G40A | 0.03
C10U U20A G22C G27C | 0.12
C10U G27U G35U G40A C42U | 0.03
A11G A25U C45G | 0.03
C10U G19U A25U G27A U28C C31G | 0.45
C10U G27U C42G | 0.07
A11C A12G A39G | 0
C10U G29C G33C | 0.06
A11C C13G C15U C18G G29C U32A G35C A39C | 0
A11C C18A U32G | 0.01
A11C U32A C46U | 0
C10U G27U G29A G36U | 0.01

Variant | self-cleavage
A11C A12G G19U C31G | 0
A11C G21C G27U U32G C37G | 0.01
A11C U20G A39G C46A | 0.05
C10U G22U G35C G44A | 0.02
A11G A25C C31G G33A C45U | 0
A11G A16G G22C C46U | 0
C10U G22C G27C C42G | 0.01
A11C G19A C37A C42A | 0.01
A11C C15G G19U U20G G44A | 0.01
A11C C31G C46A | 0
A11C C31G C46U | 0
A11C A12U A25C G29C G30A C46U | 0.04
A11C A26C G27C G36C | 0
C10U G19C U34G | 0.13
A11C G35U A41G | 0.01
A11C A16U G19C G30A | 0.01
C10U U20A C31U G33U G40A | 0.01
A11C G19U G21A G27C | 0.12
A11C G17C C23A U28A C37G | 0.01
A11C C31U U32G U38G | 0.01
A11G C13U G22C G29C G44U | 0.01
A11C C15U G17A G30C C45G | 0.05
A11G A12U G19C | 0.04
C10U U20C G30U C46A | 0.2

Variant | self-cleavage
C10U G21U A26U G27A C37A | 0.01
A11G A26C C46U | 0.02
A11C C15G G35A C37A | 0.01
C10U U38G G40U | 0.02
A11C C15U G22A | 0.01
A11G A24G C45A | 0
A11C U34C C46U | 0.1
A11C C31A U32A G40U | 0.01
C10U G21C G29A G33U A39C | 0.01
C10U G21U G33C G35U G44C | 0.04
A11C A24U G30U U38C | 0.01
C10U G21U C31U G35A G40C | 0.01
C10U G19U G33A | 0.02
A11G A24G G30C | 0.02
A11C A12G C15U | 0.01
A11C G17U U20C C23A A24U | 0.03
A11G A16C G21C C46A | 0.01
A11C G22C U32G | 0
A11G A14U A16G U34A | 0.02
A11C C23U G27C | 0.05
A11C A14U C31A C45U | 0.01
A11C C15A U28A U38A C46G | 0
A11C G36U C45A | 0.01
C10U U32G C45A | 0.05

Variant | self-cleavage
A11C C18U G33A C37A A39U A41G U43A G44A C46A | 0
A11C G27A U28C | 0.05
C10U U34G G35U | 0.07
A11C A24C U34C G44U | 0
A11G A14G C18G A25U G33C | 0.01
A11C C13U G17A G22U G33A U34C C42A C45A | 0.01
A11C G30A A39C | 0.01
C10U G21C A25G U43A | 0.02
C10U G36C C45U | 0.02
A11C C31G U38A C42U | 0
A11C G30C C46U | 0.03
A11G A14C U32C | 0.02
A11C C15A C46A | 0.06
C10U U20C A26G G35C G36C | 0.03
A11C A12G G29A U38C | 0.01
A11G A24U A41U U43G | 0.03
C10U G19U U34C | 0.24
A11G A24U A25C U28C U32A G35U A41G G44U | 0.01
A11C G19A A25G G27C C46A | 0.03
A11C G19C C42A C46U | 0
C10U G27U U32C | 0.06
C10U G44U C45A C46G | 0.04
C10U U20G G36C | 0.04
A11C C23U G30C G35U | 0

Variant | self-cleavage
A11G C13G A14U U20G | 0.02
A11C G36A A41G | 0.04
A11C A12C C18U G27A C45A | 0.03
A11G C15A G17U G19U G29U G40U | 0.02
A11C U32C G35C G36C | 0.01
A11G A16C G40U | 0.01
A11C A24G G36A | 0
A11C G36U G40C | 0.02
C10U G27C C42A U43A | 0.05
A11G A24G A25U A26G U38A | 0.01
A11G A16U U38G | 0
A11G C13G C18U | 0.01
A11C A12U G17C U38G G40C | 0.01
A11C A14C G17U | 0.01
A11G A12U G36A C45A | 0
A11C G27A U38A G44U C46A | 0
A11C G17A G35C | 0.01
A11G A25G G40A | 0.04
C10U G30A C31A | 0.18
A11C U28A G33A | 0
A11C A14G G29A C37U | 0.02
A11C U20A C45U | 0.01
C10U G29U U32G U43C | 0.06
